± gives the standard deviation of the averaged measurements. Some of the results follow.
tested on: PfAP2-G AP2 domain (GST-tagged); test: gcPBM binding intensity (ln(normalized median fluorescence intensity)); higher = stronger DNA binding
Summary of the method: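 After 1 h on an Agilent 4 × 180k array of primer-extended double-stranded 36-bp intergenic genomic probes and negative controls, bound GST-tagged P. falciparum DNA-binding domains were detected with Alexa488 anti-GST antibody and scanned at 488 nm. The domains had been expressed in E. coli, and binding took place in 1× PBS with 1% milk, 0.2 mg/ml BSA, 0.5% salmon testes DNA and 0.03% Triton X-100. Binding intensity is the highest Masliner-normalised natural-log median intensity across replicate spots of either probe orientation.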

Sequence	gcPBM binding intensity (ln)
GCAAGTCCATGAACGGTGCAGGAATTAACAAAAATA	10.2 ± 0.28
TCATGGCCATTTTCAGTGCATATGTGTATTTAATAT [GTGCAC_site9529]	10.4 ± 0.2
AATAAAAATAAAAGCACACATAAATATATATATATT [CACACA_site1441]	9.82 ± 0.042
ATGAAGAAATAAATGTGTACATATCTTAGTATCATA [XGTACX_site8658]	11.5 ± 0.76
TATTTAATTTATACACGTACATATATAAATAATACA [XGTACX_site1148]	11.4 ± 0.91
TTATAATTTTTCTATTGTACATTTAATAATATATAT [XGTACX_site7326]	10.9 ± 0.47
TTATACATATTTATATGTACGTAATATAATATTAAT [XGTACX_site6520]	11.3 ± 0.91
ATATTTTTTTTTGTTACACACGTTTTTTAAAAAATG [CACACA_site1603]	10.6 ± 0.21
TCATAAAAATAAAAATGTACACATTAGAAATATTGT [XGTACX_site3671]	11.2 ± 0.67
AGAAATAAAAAAAAAAATATATATATTATATATATA [CACACA_negctrl_site1799]	9.49 ± 0.35
TATAATGATGATGATAGTACGTATTAGTATAAAAAA [XGTACX_site9]	11.1 ± 0.72
TCATGGGTGTATTTCACACACGGATAATCATTTATA [CACACA_site4663]	10.2 ± 0.21
TTACTATAAAATGTCACACATTCTGTTTCCTTACTT [CACACA_site5714]	10.09 ± 0.042
ATTATAAAAGAATTTTTTTTTATTTCATTAAAATAT [CACACA_negctrl_site1137]	9.37 ± 0.2
AGCACATAAATAATTAAACACACATTGTTCTAGACA [CACACA_site8746]	9.74 ± 0.19
TCAACAAAATTGAAGGAACACACATACATATATATA [CACACA_site7940]	10 ± 0.15
TATAAATATCTGTATGCACACATTTTTTTTGGAAAA [CACACA_site4734]	10.2 ± 0.18
ATTTTTTCTCATAAAAACGTGAACGTTTATTTTACA [CACACA_negctrl_site1041]	10 ± 0.12
CAACTTTATACATATAGTACAAGTTATATTTTATTA [XGTACX_site6651]	10.8 ± 0.49
TACCCTTGCATGTAGGTGCAATTTTTTTTTTTTTTT	10.2 ± 0.2
TTCGTAATTTATATCACACACATATATATATAATAA [CACACA_site3115]	10.1 ± 0.34
TATATATATATATATTGTACTATATAGTATCTTTTT [XGTACX_site1646]	11 ± 0.52

Sequence	gcPBM binding intensity (ln)
TATATATTTTCTTTTGCACACTGTTTTCCTTTTTTT [CACACA_site2739]	10.035 ± 0.007
AACGATTTACATCACTGTACTAATGATATACCTCAT [XGTACX_site7463]	11.2 ± 0.95
AAAGAAATAAGGTGCACACATATACATATATATATA [CACACA_site429]	10.5 ± 0.59
TTTAAAAAAAATTCATATTATATATATATATATTAT [CACACA_negctrl_site1733]	9.2 ± 0.15
CTTTCCATATATGATAGTACACGATAAAAAAAAAAA [XGTACX_site5772]	11.2 ± 0.95
TTCTTTTTTATTTTTCAACACACATAATAAATTTCT [CACACA_site8253]	10.1 ± 0.11
TAATAATAGTACTGACATCAAAATCTTATTAAAAAT [GTGCAC_negctrl_site308]	11 ± 0.83
GCTATATATTAATGTTGTACTTTATGTTCATATTGT [XGTACX_site3619]	11.2 ± 0.75
AAAATGTACGCATATACACACACATAAATAGATACG [CACACA_site9124]	11.6 ± 0.92
TTTATGTATTTAATATGTACATATAGTTGTTAATAA [XGTACX_site1938]	11.2 ± 0.81
AAGAAATAAATACATACACACATATATAAATAAATA [CACACA_site7559]	9.915 ± 0.092
AAGAAATAATTATTATGTACTTAAAAAAATTAAAAT [XGTACX_site7423]	11.3 ± 0.68
TATAAAATTTACGTGTGTACATATTTAATAATTTTT [XGTACX_site5001]	11.4 ± 0.83
AAGATATGAGGGAATACACACATATTTATATTTATA [CACACA_site6846]	9.845 ± 0.092
ACATCATAAAATTTATGTACACATTTTTAATTATAC [XGTACX_site7759]	11.5 ± 0.73
ATCATTTTTATGTACACACACATATACGTTGAATAT [CACACA_site1865]	11.6 ± 1.1
TAATTTTTTATATATTGTACAAATAATATATGATGT [XGTACX_site268]	10.9 ± 0.59
TAAATATAGAAACACACACACATTAATACATATATT [CACACA_site3489]	10.01 ± 0.035
AAATTTGAAATGCATGAACACACACCGCTATAAATG [CACACA_site8230]	10.24 ± 0.099
AGCATAAAAATGATATGTACATATATATATATATAT [XGTACX_site2836]	11 ± 0.57
CATACATACATACATACACACATACATATGTATATA [CACACA_site7216]	10.6 ± 0.38
AATCATAAACATTATGCACACAAAAATAAAAAAAAA [CACACA_site8289]	10.1 ± 0.26

Source: the supplement of paper PMC11417369
